# Data published in PubChem BioAssay (NCATS).
# This is one part of the list. The main result of the screen is listed elsewhere. These columns were measured beside it and carry no call. For part of these data: Compounds called inactive in the main read-out are mostly missing here. Words in brackets tell the shape of the fitted curve; partial curves, single points and poor fits give uncertain potencies.
# Key:
# [1] = qHTS drug screen for cell cycle checkpoint inhibitors in PARPi-resistant BRCA-mutant ovarian cancer cell lines. (AID 1963452); settings: PEO1/OlaR viability, CellTiter-Glo luminescence, 96 h
# In short: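 PEO1, PEO4 and PEO1/OlaR ovarian cancer cells, 600 per well, exposed 96 h at 37C to a dilution series. Viability read by CellTiter-Glo luminescence, normalized to DMSO and empty wells; activity summarized as Z-AUC.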
# [2] = qHTS for identification of novel therapeutic agents for treatment of microphthalmiaassociated transcription factor (MiT) renal cell carcinoma (RCC) (AID 1963991); settings: CellTiter-Glo, 48 h; for z-score: stronger effect = lower value
# In short: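 Curves over 11 concentrations were fitted to CellTiter-Glo luminescence, scaled between empty wells (0%) and DMSO (100%) viability. Cells were UOK109, UOK124 and UOK145 TFE3-fusion RCC lines at 500/well, exposed 48 hours at 37 C.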
# [3] = TFE3-RCC UOK109 viability, measured here: UOK109 Z-AUC
# [4] = TFE3-RCC viability, measured here: UOK124 Z-AUC
# [5] = TFE3-RCC viability, measured here: UOK145 Z-AUC
# [6] = measured here: PEO1 parental viability
# [7] = TFE3-RCC viability, measured here: UOK145 cell viability
# Tags give direction and shape of the fitted curve.
Compound,AC50 ([1]; measured here: PEO4 viability),"z-score [2, 3]","z-score [2, 4]","AC50 ([2]; TFE3-RCC viability, measured here: UOK124 cell viability)","z-score [2, 5]","AC50 [1, 6]","AC50 [2, 7]"
COc1cc2nccc(Oc3ccc(NC(=O)Nc4ccc(F)cc4F)c(F)c3)c2cc1OC,"0.776 µM [falling, full curve]",0.38,0.0945,"8.33 µM [falling, partial curve]",-1.08,–,–
Cc1cnc(CNC(=O)c2c(=O)c3ccc(N4CCCN(C)CC4)nc3n3c2sc2ccccc23)cn1,–,0.151,1.24,–,0.943,"0.283 µM [falling, full curve]","7.24 µM [falling, partial curve]"
COc1ccc(-c2cc(=O)c3c(O)cc(O)cc3o2)cc1O,–,0.635,0.302,–,-0.0568,"27.5 µM [falling, single point]","10.5 µM [falling, partial curve]"
CC(C)(C)c1nc(-c2cccc(NS(=O)(=O)c3c(F)cccc3F)c2F)c(-c2ccnc(N)n2)s1,–,-0.332,0.573,–,-0.585,"24.5 µM [falling, single point]","1.32 µM [falling, partial curve, poor fit]"
O=S(=O)(c1cccc2cnccc12)N1CCCNCC1,–,1.02,0.711,–,-0.129,"19.5 µM [rising, partial curve, poor fit]","37.2 µM [falling, partial curve, poor fit]"
COc1cc2ncnc(Nc3cc(Br)c(O)c(Br)c3)c2cc1OC,"1.55 µM [falling, partial curve, poor fit]",-2.6,-0.535,–,-1.87,–,"0.0166 µM [falling, full curve]"
